Measured values reported in PMC2662774 (2008).

Molecular target: T1, CXCR4 1-38 (sY21/12/7 P38) 1-38 (Homo sapiens, UniProt P61073)
T1 chain: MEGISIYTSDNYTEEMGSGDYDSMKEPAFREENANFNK
Experiment: NMR

- Kd: 200 nM
B1: SDF-1α (protein)
chain: not shown
